Assay results as given in PubChem BioAssay AID2675 (National Center for Advancing Translational Sciences (NCATS), 2010).
Screen size: about 280,000 compounds; about 100 (0.036%) were called active. This list was built around the results that the source calls inconclusive (neither active nor inactive); the mix of calls is not that of the screen. Calls follow the shape of the dose curve; as a rule, active = well fitted inhibition curve with a large enough effect in the signal ratio, with a control signal flat (not every such curve was filed as active); inconclusive = small, poorly fitted or top-dose-only effect, or effect the other way, or a change in a side signal; inactive = no such curve, though single readings can be large or run the other way; the % refers to the signal ratio. A potency beside an inconclusive call is a rough fit, not a confirmed value. A note “side channel” means that the fit belongs to a control or component signal, not to the main read-out.

target: Muscleblind-like protein 1 (Homo sapiens) (UniProt Q9NR56); assay: qHTS Assay for Inhibitors of MBNL1-poly(CUG) RNA binding; settings: TR-FRET MBNL1-His/biotin-(CUG)12 binding, 665/545 ratio; activity change, negative = inhibition: at 57.5 µM (top of the series)
Sequence of UniProt Q9NR56 (Q9NR56 whole entry, looked up): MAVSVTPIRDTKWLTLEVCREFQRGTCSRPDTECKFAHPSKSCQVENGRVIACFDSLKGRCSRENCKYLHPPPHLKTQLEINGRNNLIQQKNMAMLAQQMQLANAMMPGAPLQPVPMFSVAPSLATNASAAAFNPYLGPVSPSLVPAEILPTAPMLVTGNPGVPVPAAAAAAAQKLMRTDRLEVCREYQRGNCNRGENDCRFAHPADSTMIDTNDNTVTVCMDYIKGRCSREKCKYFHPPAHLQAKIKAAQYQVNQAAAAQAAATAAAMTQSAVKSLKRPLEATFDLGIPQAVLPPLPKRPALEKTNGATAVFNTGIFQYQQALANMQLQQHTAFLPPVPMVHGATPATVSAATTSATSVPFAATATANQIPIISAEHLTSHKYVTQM
How it was run: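 Ratiometric TR-FRET (665 over 545 nm, excitation 340 nm) tracks disruption of MBNL1-His/biotin-(CUG)12 complex after 60 min at room temperature, with compounds at 92 nM to 58 uM final.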
% is scaled to controls: 0 for no effect and ±100 for the full control effect; potency is read from the fitted curve at half-maximal effect; tags tell the direction and shape of the fitted curve or compound fluorescence and quenching.

Structure (SMILES) | Potency | activity change, negative = inhibition
Cc1ccc(OCC(=O)c2cc(C)n(C3CC3)c2C)c([N+](=O)[O-])n1 | inconclusive: 28.2 µM [quencher, side channel, partial curve] | –
Cc1ccc(CNC(=O)c2ccc(Cn3nc(C)cc3C)o2)cc1 | – | inactive: -3.43%
CN1/C(=C\C=C2/SC(=S)NC2=O)C(C)(C)c2ccccc21 | inconclusive: 12.6 µM [quencher, side channel, partial curve] | –
O=C(OCCn1cncn1)c1cc2ccccc2oc1=O | inconclusive: 17.8 µM [quencher, side channel, partial curve] | –
COc1ccc(CCN(C)CC(O)COC(c2ccc(F)cc2)c2ccc(F)cc2)cc1OC (stereo not given) | – | inactive: -2.2%
CNC(=S)NNC(=O)Cc1ccc(OC)cc1 | inconclusive: 35.5 µM [fluorescent, side channel, single point] | –
Cc1ccc(C(=O)C[n+]2ccccc2C)cc1[N+](=O)[O-] | inconclusive: 14.1 µM [quencher, partial curve] | –
O=C(CSc1nnc(Nc2ccccc2)s1)NCc1cccs1 | inconclusive: 5.62 µM [quencher, side channel, full curve, poor fit] | –
CC(C)NC(=O)/C(=C\c1cccc([N+](=O)[O-])c1)NC(=O)c1ccccc1 | inconclusive: 31.6 µM [quencher, side channel, single point] | –
Cc1c(O)ccc2c(CN3CCN(Cc4ccccc4)CC3)cc(=O)oc12 | inconclusive: 35.5 µM [quencher, single point] | –
CCN1C(=O)/C(=C2/Sc3ccccc3N2CCCS(=O)(=O)O)SC1=S | inconclusive: 15.8 µM [quencher, partial curve] | –
COCCNC(=O)/C(C#N)=C/c1cc(C)n(-c2ccc(C)cc2)c1C | inconclusive: 15.8 µM [quencher, side channel, partial curve] | –
COc1c(Br)cc(Br)cc1C(=O)O | – | inactive: -14.2%
COc1ccccc1C(=O)NN1C(=O)/C(=C/c2cccn2C)SC1=S | inconclusive: 0.794 µM [quencher, side channel, full curve, poor fit] | –
CC/C(=C/c1sc2ccc(C)cc2[n+]1CCO)SC | inconclusive: 22.4 µM [quencher, side channel, single point] | –
CC(NCc1ccc([N+](=O)[O-])cc1)C1COc2ccccc2O1 (stereo not given) | inconclusive: 15.8 µM [quencher, side channel, single point] | –
CCOC(=O)CSc1ccc(S(=O)(=O)N(C)C2CCCCC2)cc1[N+](=O)[O-] | inconclusive: 25.1 µM [quencher, single point] | –
O=C(Nc1nccs1)c1cc2cc(Cl)ccc2oc1=O | inconclusive: 2.82 µM [quencher, side channel, partial curve] | –
C=CCN(c1ccccc1)S(=O)(=O)c1cccc(C(=O)NCC2CCCO2)c1 (stereo not given) | – | inactive: 0.452%
CC(=O)c1cc(O)c2ccccc2c1O | inconclusive: 14.1 µM [quencher, side channel, partial curve] | –

Structure (SMILES) | Potency | activity change, negative = inhibition
COc1cccc(CNC(=O)CCCNC(=O)c2ccc(Cl)cc2)c1 | inconclusive: 35.5 µM [quencher, side channel, partial curve] | –
O=C(CCN1C(=O)C2C3C=CC(C3)C2C1=O)NCc1cccnc1 (stereo not given) | inconclusive: 7.94 µM [inhibitor, single point] | –
Cc1sc(NC(=O)CSc2nnc(-c3ccc(F)cc3)o2)c(C#N)c1C | – | inactive: 1.11%
COc1ccc(S(=O)(=O)NC(C)C)cc1C(=O)N1CCOCC1 | – | inactive: 5.4%
COc1ccc(C2=NS(=O)(=O)N(C)C(C(=O)Nc3cc(C)ccc3O)=C2)cc1OC | inconclusive: 31.6 µM [quencher, side channel, partial curve] | –
NC(=O)C[C@@H]1NC(=O)CNC(=O)c2cc([N+](=O)[O-])cc(I)c2NCCC(C(N)=O)NC1=O (stereo not given in full) | inconclusive: 15.8 µM [quencher, side channel, partial curve] | –
Cc1ccc(-c2n[nH]c(=S)c3ccccc23)cc1S(=O)(=O)NCC1CCCO1 (stereo not given) | inconclusive: 31.6 µM [quencher, partial curve] | –
O=[N+]([O-])c1ccc(-c2nc(-c3ccncc3)no2)cc1 | inconclusive: 1.78 µM [quencher, side channel, full curve] | –
O=C1CSC(c2cccc([N+](=O)[O-])c2)N1c1ccccc1F (stereo not given) | inconclusive: 31.6 µM [quencher, side channel, single point] | –
S=c1[nH]nc(-c2c[nH]c3ccccc23)o1 | – | inactive: -6.9%
NC(=O)c1nnsc1-c1ccc(-c2snnc2C(N)=O)cc1 | inconclusive: 0.891 µM [quencher, side channel, full curve] | –
COC(=O)Cn1c(O)c(N=NC(=O)c2ccc3c(c2)OCO3)c2ccccc21 | inconclusive: 0.794 µM [quencher, side channel, full curve, poor fit] | –
COCCN(CCOC)C(=O)c1cc2c(=O)n3ccccc3nc2s1 | inconclusive: 15.8 µM [quencher, side channel, partial curve] | –
N#Cc1cc([N+](=O)[O-])cnc1N(CCO)CCO | inconclusive: 15.8 µM [quencher, partial curve] | –
CC1CCCC(NC(=O)C2CCCN2S(=O)(=O)c2cccc3nsnc23)C1C (stereo not given) | inconclusive: 17.8 µM [quencher, side channel, partial curve] | –
Cc1[nH]n(-c2ccccc2)c(=O)c1C(=O)c1ccc(Cl)cc1 | – | inactive: -8.08%
COc1ccc(C(=O)Nc2ccccc2C(=O)N2CCOCC2)cc1Br | – | inactive: -0.235%
Nc1ccccc1C(=O)/C=C/c1ccc2c(c1)OCO2 | inconclusive: 31.6 µM [quencher, side channel, partial curve] | –
CC(C)[C@H](NS(=O)(=O)c1ccccc1)C(=O)OCC(=O)N1N=C(c2ccc(Cl)cc2)CC1c1ccco1 (stereo not given in full) | inconclusive: 3.55 µM [quencher, side channel, single point] | –
COc1ccc(/C=N/NC(=O)c2cc(-c3cccn3C)n[nH]2)cc1OC | inconclusive: 28.2 µM [quencher, side channel, partial curve] | –
